# Results: publication PMC12136788
# The list shows a part of the results.
# T1: UNK ZnF1-3 (human, UniProt Q9C0B0 31-174)
# T1 sequence: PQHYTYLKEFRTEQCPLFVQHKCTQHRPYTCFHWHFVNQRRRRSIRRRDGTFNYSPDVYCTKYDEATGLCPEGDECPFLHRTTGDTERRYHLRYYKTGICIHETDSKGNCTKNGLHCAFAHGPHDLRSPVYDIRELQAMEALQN
# B1: chr7:156476592:156476593:-_ENSG00000105983_ENST00000359422|hu_hu|FALSE|FALSE (ssRNA)
# RNA: GGGAGUUCUACAGUCCGACGAUCUCUACAGAAGAAUGCGCUGUUCUAUAUGUCUGUAAGGAAUCUGCACUUAACUGGAAACUACAGGGUCCAUCAGAAAGUUAAAUUUAAAAAAGAUCAGCCAUAGCCAAGUUCUUCGUAGAUCAACAGAGGAUUGAGCAUCA
# B2: 184052540_184052660_4587_CDS_ENSG00000114867_ENST00000411531|human|control|control (ssRNA)
# RNA: GGGAGUUCUACAGUCCGACGAUCCCACUUGAAGAAGGCUGUGACAGAUUUAAGGGCCACACCCUUGCCCUGCUGCUCAGCGGGGUCCUUGCUACUCUCCCAACUGUAGAAGGCAUCCUCCUUCACCACGUCCUCGUCAUACAGCAACAGAGGAUUGAGCAUCA
# B3: chr15:75756842:75756843:-_ENSMUSG00000022570_ENSMUST00000023231|mus_hu|FALSE|FALSE (ssRNA)
# RNA: GGGAGUUCUACAGUCCGACGAUCCAGCACGUGGCCAUCCUCGAUGUUGAAGUUGUCGUGGGGCCCGAAGACGUUGGUGGGGAUGACAGCGGUGAAGGUGCAGCCGUACUGCUGGAAGUAGGCCCUGUUCUGCACGUCGAUCAUCAACAGAGGAUUGAGCAUCA
# B4: chr7:44244176:44244177:+_ENSG00000106636_ENST00000223369|hu_mus|hu_hu_hu_mus_False|18_18 (ssRNA)
# RNA: GGGAGUUCUACAGUCCGACGAUCACUGUCGCUCCGGACGUAGACAUGGCAAAGAUACUCUUGUUCUUUGACAGAAGCUCUGCUGCCUUUCCCCGAGCGUUCCACAAUCAGUUGACUCGUGAAGGUCAUGAAUUCCUGCACACUCAACAGAGGAUUGAGCAUCA
# B5: chr10:120825051:120825052:-_ENSG00000107581_ENST00000369144|hu_mus|FALSE|FALSE (ssRNA)
# RNA: GGGAGUUCUACAGUCCGACGAUCAUCCAAAAGUCGAGCAAUAUCAGUUCGCUCAGGAGUAAUAGGAAUGGAAAGAGUCGCCAAAAGGACUCUAGUAGACAUUCUUUGCAUCUCUUCUUGUGUAAGAUUCUUUCUCAUUUCUCUCAACAGAGGAUUGAGCAUCA
# B6: chr3:149684364:149684365:-_ENSG00000070087_ENST00000239940|hu_mus|FALSE|FALSE (ssRNA)
# RNA: GGGAGUUCUACAGUCCGACGAUCUGAGUAUGCCUUCUUAUUCAAUCCGCCUCCAUGGACCCCUUCUUUUCCCAUUACAAAGACCAAGACUCUCCCGGCCCUGCCAACAGCAACGUUGUAUGUUGGCUCCCCACCUUGACUCUUCAACAGAGGAUUGAGCAUCA
# B7: chr7:141441981:141441982:+_ENSG00000106028_ENST00000265304|hu_mus|hu_hu_hu_mus_False|1_78 (ssRNA)
# RNA: GGGAGUUCUACAGUCCGACGAUCCUCAUGUCUUACAAACUGACGAAAUACCUGUAAUACAGGUCUUCGAAACAUGGCUUCUGUUUUUCUUACAACCUAAUCUUUAGGCUUUUCCUAAAGGAAAGAAAGAAAAGAGAAGCCCAGCAACAGAGGAUUGAGCAUCA
# B8: chr3:148802587:148802588:-_ENSG00000071794_ENST00000310053|hu_mus|hu_hu_hu_mus_False|28_58 (ssRNA)
# RNA: GGGAGUUCUACAGUCCGACGAUCUCCAACAACUUGUCCUCUCAUAGUUCCAAAUAAAACCAAAUCUUGCUCUUCAUCACUAGUUAGGAAGUCAUCUGGAGGAAUAACAUCUUGGAAUUCAAAAUGUGGCAAGAAAGUUGAGUACAACAGAGGAUUGAGCAUCA
# B9: chr4:149991449:149991450:+_ENSMUSG00000039852_ENSMUST00000105680|mus_hu|FALSE|FALSE (ssRNA)
# RNA: GGGAGUUCUACAGUCCGACGAUCACGCUCGGCUGCCAGUCUGUCAGGGUAGCUCAUCUCGGGCCGCAGCUGGGGGCCCGCCAGGGCCAGUCUCUCCCUCUCCAAGGGGUUCAGGCCCGGGUGGAAAGAAGCAAAAGGGUGGGGCAACAGAGGAUUGAGCAUCA
# B10: chr14:67423352:67423353:-_ENSMUSG00000022048_ENSMUST00000022629|mus_mus|motif|central (ssRNA)
# RNA: GGGAGUUCUACAGUCCGACGAUCAAACUAGGAUAGCACAAAACUAUGGUGGUGGGGGCAAAACUAAGAUCUGCUCAGGCGGUGCCUGAGACCAAACUGGGUUGCCUGGCUUUAAGAGCAGACAGAGUUAAGAGGAAAAAAAAACAACAGAGGAUUGAGCAUCA
# B11: chr11:47660561:47660562:-_ENSG00000109919_ENST00000530428|hu_mus|FALSE|FALSE (ssRNA)
# RNA: GGGAGUUCUACAGUCCGACGAUCAGCAUAGCAAAAGAGGCCAGGAAGCUGACAUACUUGUCGCCCAAAAAUAUUUCGUCCUAUUGUUGGAGGAAGAGGCUCAUAUCCCACCUGGAUGAGCACUUUCACGUACAUGAGCGGCUGCAACAGAGGAUUGAGCAUCA
# B12: chr2:5814250:5814251:-_ENSMUSG00000025816_ENSMUST00000102981|mus_mus|motif|central (ssRNA)
# RNA: GGGAGUUCUACAGUCCGACGAUCUUCCUUUCAGGCUUCUGAAUUUCUGGUAGAACUGCACAGAAAGGUUUAAUAACUUCGGAAAACUUGAUGCCCAUGGCGGCGGCUCAGCACACCCGGCGGGCACCCGCGGCCUCGCAGCUGCAACAGAGGAUUGAGCAUCA
# B13: chr10:73857132:73857133:-_ENSG00000138303_ENST00000317168|hu_hu|motif|central (ssRNA)
# RNA: GGGAGUUCUACAGUCCGACGAUCUUUCCAAGAUCCACCUCAGGAGAAGUCAAUUUGUCCACAGGAAGCGUAGUUUCCAAAGCUGUCGGCGGUGAACCUCUGAGAGAUGUGAAUUGAAUUCAGCUUUAGGGAGCCAAAGUAGAACAACAGAGGAUUGAGCAUCA
# B14: 103846480_103848510_1781_3pUTR_ENSG00000155096_ENST00000337198|human|control|control (ssRNA)
# RNA: GGGAGUUCUACAGUCCGACGAUCCCAAUUUCUCCAGCCAUGUCAAACACACAUCGAGCAUCAGAUAGAGCAUGUACAUAUACUUGAGAUUCUUUGCAAGCACUCGAAACAUGAAAUUUAACCCCAAUUAUUUGGACAUCAAGUCAACAGAGGAUUGAGCAUCA
# Target: T1, UNK ZnF1-3
# Assay: nsRBNS (natural sequence RNA bind-n-seq); RBNS binding buffer (assumed for nsRBNS): 25 mM Tris pH 7.5, 150 mM KCl, 3 mM MgCl2, 0.01% Triton X-100, 500 ug/ml BSA, 20 U/ml SUPERase-In, 4 C; UNK is unkempt and MSI1 is Musashi-1; names of the RNAs are library labels; protein concentration not given here; high values mean tight binding
row,Binder,binding signal [enrichment R]
1,B1,1.75
2,B2,0.809
3,B3,0.958
4,B4,0.605
5,B5,0.719
6,B6,0.684
7,B7,0.362
8,B8,1.54
9,B9,1.41
10,B10,1.89
11,B11,2.1
12,B12,0.878
13,B13,1.14
14,B14,1.71
